# Some of the results follow.
# Columns and labels:
# Assay in all cases: glycan array binding signal (z-score within array); higher = stronger binding
# Settings in all cases: glycan notation: IUPAC condensed, linker removed
# Fuc(a1-2)Gal = target: Fuc(a1-2)Gal
# How it was run: (§1)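 Glycan array data were curated from 3228 arrays in the Consortium for Functional Glycomics database and kept only where the protein sequence was available. Glycan names were converted to IUPAC-condensed notation, and columns mapping to the same glycan were averaged. The binding signal is a within-array Z-score, averaged across arrays of the same protein sequence at different concentrations or buffers and across linkers. Negative Z-scores can be read as non-binding.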
# Fuc(a1-2)Gal(b1-3)GalNAc = target: Fuc(a1-2)Gal(b1-3)GalNAc
# How it was run: as §1
# [1] = target: Fuc(a1-2)Gal(b1-3)GalNAc(b1-3)Gal
# How it was run: as §1
# [2] = target: Fuc(a1-2)Gal(b1-3)GalNAc(b1-3)Gal(a1-4)Gal(b1-4)Glc
# How it was run: as §1
# [3] = target: Fuc(a1-2)Gal(b1-3)GalNAc(b1-4)[Neu5Ac(a2-3)]Gal(b1-4)Glc
# How it was run: as §1
# Fuc(a1-2)Gal(b1-3)GlcNAc = target: Fuc(a1-2)Gal(b1-3)GlcNAc
# How it was run: as §1
# [4] = target: Fuc(a1-2)Gal(b1-3)GlcNAc(b1-2)Man(a1-3)[Fuc(a1-2)Gal(b1-3)GlcNAc(b1-2)Man(a1-6)]Man(b1-4)GlcNAc(b1-4)GlcNAc
# How it was run: as §1
# [5] = target: Fuc(a1-2)Gal(b1-3)GlcNAc(b1-3)Gal(b1-4)Glc
# How it was run: as §1
# [6] = target: Fuc(a1-2)Gal(b1-3)GlcNAc(b1-3)[Gal(b1-4)[Fuc(a1-3)]GlcNAc(b1-6)]Gal(b1-4)Glc
# How it was run: as §1
# [7] = target: Fuc(a1-2)Gal(b1-3)[Fuc(a1-4)]GlcNAc
# How it was run: as §1
# [8] = target: Fuc(a1-2)Gal(b1-3)[Fuc(a1-4)]GlcNAc(b1-2)Man(a1-3)[Fuc(a1-2)Gal(b1-3)[Fuc(a1-4)]GlcNAc(b1-2)Man(a1-6)]Man(b1-4)GlcNAc(b1-4)GlcNAc
# How it was run: as §1
# Fuc(a1-2)Gal(b1-4)Glc = target: Fuc(a1-2)Gal(b1-4)Glc
# How it was run: as §1
# Fuc(a1-2)Gal(b1-4)Glc6S = target: Fuc(a1-2)Gal(b1-4)Glc6S
# How it was run: as §1
# Fuc(a1-2)Gal(b1-4)GlcNAc = target: Fuc(a1-2)Gal(b1-4)GlcNAc
# How it was run: as §1
# [9] = target: Fuc(a1-2)Gal(b1-4)GlcNAc(b1-2)Man(a1-3)[Fuc(a1-2)Gal(b1-4)GlcNAc(b1-2)Man(a1-6)]Man(b1-4)GlcNAc(b1-4)GlcNAc
# How it was run: as §1
# [10] = target: Fuc(a1-2)Gal(b1-4)GlcNAc(b1-3)Gal(b1-4)GlcNAc
# How it was run: as §1
# [11] = target: Fuc(a1-2)Gal(b1-4)GlcNAc(b1-3)Gal(b1-4)GlcNAc(b1-3)Gal(b1-4)GlcNAc
# How it was run: as §1
# [12] = target: Fuc(a1-2)Gal(b1-4)GlcNAc6S
# How it was run: as §1
# [13] = target: Fuc(a1-2)Gal(b1-4)[Fuc(a1-3)]GlcNAc
# How it was run: as §1
# [14] = target: Fuc(a1-2)Gal(b1-4)[Fuc(a1-3)]GlcNAc(b1-2)Man(a1-3)[Fuc(a1-2)Gal(b1-4)[Fuc(a1-3)]GlcNAc(b1-2)Man(a1-6)]Man(b1-4)GlcNAc(b1-4)GlcNAc
# How it was run: as §1
# [15] = target: Fuc(a1-2)Gal(b1-4)[Fuc(a1-3)]GlcNAc(b1-3)Gal(b1-4)[Fuc(a1-3)]GlcNAc
# How it was run: as §1
# [16] = target: Fuc(a1-2)Gal(b1-4)[Fuc(a1-3)]GlcNAc(b1-3)Gal(b1-4)[Fuc(a1-3)]GlcNAc(b1-3)Gal(b1-4)[Fuc(a1-3)]GlcNAc
# How it was run: as §1
# Fuc(a1-2)Gal6S(b1-4)Glc = target: Fuc(a1-2)Gal6S(b1-4)Glc
# How it was run: as §1
# [17] = target: Fuc(a1-2)Gal6S(b1-4)Glc6S
# How it was run: as §1
# [18] = target: Fuc(a1-2)Gal6S(b1-4)GlcNAc
# How it was run: as §1
# Fuc(a1-2)[Gal(a1-3)]Gal = target: Fuc(a1-2)[Gal(a1-3)]Gal
# How it was run: as §1
# [19] = target: Fuc(a1-2)[Gal(a1-3)]Gal(b1-3)GlcNAc
# How it was run: as §1
# [20] = target: Fuc(a1-2)[Gal(a1-3)]Gal(b1-3)GlcNAc(b1-2)Man(a1-3)[Fuc(a1-2)[Gal(a1-3)]Gal(b1-3)GlcNAc(b1-2)Man(a1-6)]Man(b1-4)GlcNAc(b1-4)GlcNAc
# How it was run: as §1
# [21] = target: Fuc(a1-2)[Gal(a1-3)]Gal(b1-4)Glc
# How it was run: as §1
# [22] = target: Fuc(a1-2)[Gal(a1-3)]Gal(b1-4)GlcNAc
# How it was run: as §1
binder,measurement,setting,value
"GIINTLQKYYCRVRGGRCAVLSCLPKEEQIGKCSTRGRKCCRRKK [Beta-Defensin 3 (Homo sapiens), P81534]",glycan array binding signal (z-score),Fuc(a1-2)Gal,0.026
same,glycan array binding signal (z-score),Fuc(a1-2)Gal(b1-3)GalNAc,-0.217
same,glycan array binding signal (z-score),[1],-0.214
same,glycan array binding signal (z-score),[2],-0.574
same,glycan array binding signal (z-score),[3],-0.543
same,glycan array binding signal (z-score),Fuc(a1-2)Gal(b1-3)GlcNAc,-0.288
same,glycan array binding signal (z-score),[4],-0.721
same,glycan array binding signal (z-score),[5],-0.454
same,glycan array binding signal (z-score),[6],-0.502
same,glycan array binding signal (z-score),[7],-0.254
same,glycan array binding signal (z-score),[8],0.336
same,glycan array binding signal (z-score),Fuc(a1-2)Gal(b1-4)Glc,-0.284
same,glycan array binding signal (z-score),Fuc(a1-2)Gal(b1-4)Glc6S,0.55
same,glycan array binding signal (z-score),Fuc(a1-2)Gal(b1-4)GlcNAc,-0.513
same,glycan array binding signal (z-score),[9],-0.692
same,glycan array binding signal (z-score),[10],-0.522
same,glycan array binding signal (z-score),[11],-0.323
same,glycan array binding signal (z-score),[12],-0.267
same,glycan array binding signal (z-score),[13],-0.259
same,glycan array binding signal (z-score),[14],-0.427
same,glycan array binding signal (z-score),[15],-0.443
same,glycan array binding signal (z-score),[16],-0.483
same,glycan array binding signal (z-score),Fuc(a1-2)Gal6S(b1-4)Glc,0.806
same,glycan array binding signal (z-score),[17],5.67
same,glycan array binding signal (z-score),[18],0.386
same,glycan array binding signal (z-score),Fuc(a1-2)[Gal(a1-3)]Gal,-0.102
same,glycan array binding signal (z-score),[19],-0.401
same,glycan array binding signal (z-score),[20],-0.663
same,glycan array binding signal (z-score),[21],-0.411
same,glycan array binding signal (z-score),[22],-0.436

# Reference: the supplement of paper PMC8728848
